In the supplement of paper PMC4604168 (melanoma cell lines):
The list shows a part of the results. Most values come without repeats; read them as rough.

How the values were obtained:
Assay in all cases: cell count relative to DMSO control; melanoma cells; higher = more viable cells
Details in all cases: library dose: standard library concentration; 72 h
A101D = tested on: A101D
A2058 = tested on: A2058
A375 = tested on: A375
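Also: cells treated in 1,536-well plates, then fixed and DAPI-stained, with nuclei counted from automated high-throughput microscope images.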

| SMILES | cell count (A101D) [%] | cell count (A2058) [%] | cell count (A375) [%] |
| --- | --- | --- | --- |
| C[C@]12O[C@H](C[C@]1(O)CO)n1c3ccccc3c3c4c(c5c6ccccc6n2c5c31)CNC4=O [Lestaurtinib] + CC(C)C[C@H](NC(=O)[C@H](Cc1ccccc1)NC(=O)c1cnccn1)B(O)O [Bortezomib] (first compound 0.02 µM, partner dose 0.005 µM) | 14.9 | 13.1 | 92.4 |
| N.N.[Cl][Pt][Cl] [cisplatin] + Clc1ccc(Nc2nnc(Cc3ccncc3)c3ccccc23)cc1 [vatalanib] (first compound 8 µM, partner dose 10 µM) | 59.3 | 107 | 88.2 |
| Cn1cc(C2=C(c3cn(C4CCN(Cc5ccccn5)CC4)c4ccccc34)C(=O)NC2=O)c2ccccc21 [Enzastaurin] + CCCS(=O)(=O)Nc1ccc(F)c(C(=O)c2c[nH]c3ncc(Cl)cc23)c1F [PLX4720] (first compound 4 µM, partner dose 0.4 µM) | 74.6 | 106 | 87.7 |
| Cn1cc(C2=C(c3cn(C4CCN(Cc5ccccn5)CC4)c4ccccc34)C(=O)NC2=O)c2ccccc21 [Enzastaurin] + CN(C)S(=O)(=O)c1ccc2c(c1)/C(=C/c1cc3c([nH]1)CCCC3)C(=O)N2 [SU6656] (first compound 4 µM, partner dose 2 µM) | 84.2 | 104 | 143 |
| N.N.[Cl][Pt][Cl] [cisplatin] + C[As](C)SC[C@H](NC(=O)CC[C@H](N)C(=O)O)C(=O)NCC(=O)O [Darinaparsin] (first compound 8 µM, partner dose 2 µM) | 82.9 | 109 | 107 |
| C[As](C)SC[C@H](NC(=O)CC[C@H](N)C(=O)O)C(=O)NCC(=O)O [Darinaparsin] + COc1ccc(Cl)c(Nc2nc3ccccc3nc2NS(=O)(=O)c2cccc(NC(=O)C(C)(C)N)c2)c1 [XL147] (first compound 2 µM, partner dose 4 µM) | 89 | 80.8 | 82.8 |
| C[C@]12O[C@H](C[C@]1(O)CO)n1c3ccccc3c3c4c(c5c6ccccc6n2c5c31)CNC4=O [Lestaurtinib] + CN(C)S(=O)(=O)c1ccc2c(c1)/C(=C/c1cc3c([nH]1)CCCC3)C(=O)N2 [SU6656] (first compound 0.02 µM, partner dose 2 µM) | 50.6 | 72.7 | 128 |
| N.N.[Cl][Pt][Cl] [cisplatin] + CC(=O)c1c(C)c2cnc(Nc3ccc(N4CCNCC4)cn3)nc2n(C2CCCC2)c1=O [palbociclib] (first compound 8 µM, partner dose 0.2 µM) | 56.8 | 84 | 66.1 |
| Cn1cc(C2=C(c3cn(C4CCN(Cc5ccccn5)CC4)c4ccccc34)C(=O)NC2=O)c2ccccc21 [Enzastaurin] + NC(=O)Nc1cc(-c2cccc(F)c2)sc1C(=O)N[C@H]1CCCNC1 [AZD7762] (first compound 4 µM, partner dose 0.1 µM) | 19.1 | 55.3 | 50.8 |
| Cn1cc(C2=C(c3cn(C4CCN(Cc5ccccn5)CC4)c4ccccc34)C(=O)NC2=O)c2ccccc21 [Enzastaurin] + CN1CCN(c2ccc3nc(-c4c(N)c5c(F)cccc5[nH]c4=O)[nH]c3c2)CC1 [Dovitinib] (first compound 4 µM, partner dose 0.5 µM) | 61.1 | 29.4 | 68.2 |
| Cn1cc(C2=C(c3cn(C4CCN(Cc5ccccn5)CC4)c4ccccc34)C(=O)NC2=O)c2ccccc21 [Enzastaurin] + N.N.[Cl][Pt][Cl] [cisplatin] (first compound 4 µM, partner dose 8 µM) | 97 | 116 | 102 |
| C[As](C)SC[C@H](NC(=O)CC[C@H](N)C(=O)O)C(=O)NCC(=O)O [Darinaparsin] + CO[C@@H]1[C@H](N(C)C(=O)c2ccccc2)C[C@H]2O[C@]1(C)n1c3ccccc3c3c4c(c5c6ccccc6n2c5c31)C(=O)NC4 [Midostaurin] (first compound 2 µM, partner dose 0.4 µM) | 60.8 | 46.2 | 60.5 |
| Cn1cc(C2=C(c3cn(C4CCN(Cc5ccccn5)CC4)c4ccccc34)C(=O)NC2=O)c2ccccc21 [Enzastaurin] + CC(C)(C)c1cnc(CSc2cnc(NC(=O)C3CCNCC3)s2)o1 [SNS-032] (first compound 4 µM, partner dose 0.05 µM) | 32.5 | 62.7 | 96.4 |
